Data as given in PubChem BioAssay AID652104 (National Center for Advancing Translational Sciences (NCATS), 2013).
The campaign covered roughly 410,000 compounds. About 7,200 (1.8%) were called active. The shares of active, inactive and inconclusive entries below differ from those in the screen. Calls come from the whole dose curve; as a rule, active = well fitted activation curve with a large enough effect; inconclusive = small, poorly fitted or top-dose-only effect, or another doubt; inactive = no such curve, though single readings can be large or run the other way. Where the call is inconclusive, the potency comes from a doubtful curve fit.

Assay: qHTS of TDP-43 Inhibitors; note: nearly all actives have a fitted effect of over 50% in size; for growth rescue (activation): % of control where 0% means no effect
Details: TDP-43 expressing yeast growth rescue, BacTiter-Glo, 24 h; growth rescue (activation): at 46.1 µM (top of the series) unless noted
In short: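 Cell-based yeast growth screen: TDP-43 expression induced in galactose, inoculum OD600=0.02 after raffinose pregrowth to mid-log. Read-out BacTiter-Glo luminescence at 24 hr, 30 deg C; inhibition of toxicity seen as signal increase.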
Potency is the fitted concentration of half-maximal effect; tags give direction and shape of the fitted curve.

Potency, inconclusive:
CN(C(=O)CSc1nnc2[nH]c(=O)cc(-c3ccccc3)n12)c1ccccc1 0.501 µM [activator, full curve, poor fit]
COc1cc2cc(C(=O)O)n(C)c2c(OC)c1OC 35.5 µM [activator, single point]
S=c1[nH]ncn2c1cc1oc3ccccc3c12 15.8 µM [activator, single point]
CCc1sc(NC(=O)C(C)C)nc1-c1ccccc1 11.2 µM [activator, partial curve]
COc1ccc(C(=O)CCC(=O)Nc2ccccc2C)cc1 35.5 µM [activator, partial curve, poor fit]
COCCN(Cc1cc2cc3c(cc2nc1Cl)OCO3)C(=O)c1ccc(C)cc1 35.5 µM [activator, single point]
COc1ccc(/C=N/NC(=O)c2nn(C)cc2Br)cc1CSCc1ccco1 2.82 µM [activator, full curve]
CCOc1ccccc1NC(=O)Nc1ccc(OC)nc1 25.1 µM [activator, partial curve]
CSc1ccccc1OCc1cc(C(=O)N2CCCC2c2nonc2C)no1 (stereo not given) 22.4 µM [activator, single point]
COC(=O)C[C@@H]1CC[C@H](NS(=O)(=O)c2cccc(F)c2)[C@@H](CO)O1 1.41 µM [activator, partial curve]
COc1ccc(CCNC(=O)c2cc(C3CC3)nc3c2cnn3C(C)C)cc1 12.6 µM [activator, partial curve]
CCn1cc(SCC(=O)Nc2cc(C)on2)c2ccccc21 35.5 µM [activator, partial curve, poor fit]
Cc1cccc(-c2noc(C3CC(=O)N(c4ccc5c(c4)OCCO5)C3)n2)c1 (stereo not given) 11.2 µM [activator, partial curve]
c1coc(-c2ccc3nncn3c2)c1 0.501 µM [activator, full curve, poor fit]
COc1ccc(NC(=O)CCc2c(C)nn(-c3ccc(N4CCOCC4)nn3)c2C)cc1Cl 0.501 µM [activator, full curve, poor fit]
CN(/N=C/c1cccnc1)c1cnc2ccccc2n1 15.8 µM [activator, partial curve]
Cc1ccc(NNC(=S)Nc2ccc(C(C)C)cc2)c(C)c1 25.1 µM [activator, single point]
CC(C)C(=O)Nc1nnc(CCN2CCCCC2)s1 3.16 µM [activator, single point]
COc1ccc(N2C(=O)C(Cl)=C(NCc3ccccc3)C2=O)cc1 31.6 µM [activator, single point]
CCOC(=O)[C@@H]1[C@H]2COc3ccccc3[C@H]2N2C(=O)N(c3cccc(Cl)c3)C(=O)[C@]12C 35.5 µM [activator, single point]
Cc1ccc2ccc(C(Nc3ccccn3)c3ccccc3)c(O)c2n1 (stereo not given) 0.562 µM [activator, full curve, poor fit]
O=C(COc1ccc(Cl)cc1Cl)NCCN1CCCCC1 6.31 µM [activator, single point]
CCCOc1ccccc1C(=O)N1CCC(c2nc3ccccc3s2)CC1 35.5 µM [activator, single point]
O=C(Nc1cccc(Br)c1)Oc1cccc2cccnc12 35.5 µM [activator, partial curve]
Cc1cccc(NC(=O)C2CCCCN2S(=O)(=O)c2ccccc2)c1C (stereo not given) 11.2 µM [activator, partial curve]
c1coc(C2Nc3ccccc3C3OCCC23)c1 (stereo not given) 8.91 µM [activator, partial curve, poor fit]
COC(=O)c1ccccc1-c1ccc(/C=N/NC(=O)c2cc3ccccc3o2)o1 5.01 µM [activator, partial curve, poor fit]
C=CCc1c(C)nc2nc(SCC(=O)Nc3ccccc3CC)nn2c1C 0.316 µM [activator, full curve]
C/C(=N\NC(=S)Nc1c(C)cccc1C)c1ccc(OC(F)F)cc1 1.26 µM [activator, full curve]
CSc1cccc(NC(=S)Nc2cc(C)ccc2C)c1 14.1 µM [activator, single point]
CC(C)c1ccc(C(=O)N2CCOCC2c2cc(C(=O)Nc3ccccc3)no2)cc1 (stereo not given) 35.5 µM [activator, partial curve, poor fit]
Cc1nn(C(=O)CNC(=O)c2ccccc2)c(C)c1C 12.6 µM [activator, single point]
O=C(Nc1ccc(F)cc1F)C1CCCN(c2ncnc3c2nc2n3CCCCC2)C1 (stereo not given) 20 µM [activator, partial curve]
CC1=CC(C)(C)n2c(O)c(N=N)c3cc(C)cc1c32 35.5 µM [activator, partial curve]
CSCCCNC(=S)N1CCN(c2ccc(C(C)=O)cc2)CC1 28.2 µM [activator, partial curve]
COc1cccc(-c2nn(C)c3sc(C(=O)NCc4ccc5c(c4)OCO5)cc23)c1 17.8 µM [activator, partial curve]
Cc1nnc(NC(=O)c2nc(S(=O)(=O)Cc3ccccc3)ncc2Cl)s1 14.1 µM [activator, single point]
CCOC(=O)C1CCCN(c2ncnc3c2cnn3-c2ccc(C)c(Cl)c2)C1 (stereo not given) 25.1 µM [activator, partial curve, poor fit]
O=C(CCSc1ccccc1)NC(=O)COC(=O)c1ccc(OC(F)F)cc1 10 µM [activator, partial curve]
Clc1ccccc1-c1ncnc2ccc(Br)cc12 17.8 µM [activator, single point]
S=C(Nc1ccccc1Cl)N1CCCC1 5.62 µM [activator, partial curve]
O=C(NCCF)C1Nc2ccc(OC(F)(F)F)cc2C2C=CCC12 (stereo not given) 39.8 µM [activator, partial curve, poor fit]
COc1ccc(-c2noc(C3CC(=O)N(c4cc(C)cc(C)c4)C3)n2)cc1 (stereo not given) 10 µM [activator, partial curve]

Potency, inactive:
Cn1c(=O)n(C)c2cc(S(=O)(=O)Nc3ccccc3C(=O)O)ccc21

Potency, active:
Fc1c(F)c(F)c(CSc2nc3ccccc3[nH]2)c(F)c1F 11.2 µM
O=C(Nc1nccs1)c1cc(-c2ccccc2)nc2ccccc12 14.1 µM
O=C(c1ccc(NC(=S)Nc2ccc(Cl)c(Cl)c2)cc1)N1CCCC1 17.8 µM
CC(=O)Nc1cccc(OCCCOc2cccc([N+](=O)[O-])c2)c1 12.6 µM
N/C(Cc1ccc([N+](=O)[O-])cc1)=N\OC(=O)C1CCCCC1 20 µM
COc1ccc(-c2oc3c(c2C#CC2(O)CCCCC2)C(OC(C)=O)CCC3)cc1 (stereo not given) 20 µM
CC1c2cc3c(cc2CCN1C(=O)c1cccc(Cl)c1)OCCCO3 (stereo not given) 12.6 µM
Cc1ccc(Nc2c(-c3ccc(C)cc3)nc3cnccn23)cc1 22.4 µM
CCN(CC)c1ncnc2c1sc1nc(C)cc(C)c12 22.4 µM
COc1ccc(/C=C2\NC(=S)N(CC3CCCO3)C2=O)c(OC)c1C (stereo not given) 12.6 µM

Growth rescue (activation), inconclusive:
COc1ccccc1-[n+]1c(C)cc(/C=C2\Sc3ccccc3N2C)cc1C -84.8% [activator]

Growth rescue (activation), inactive:
Cc1ccc(C)c(NC(=O)CCNS(=O)(=O)c2ccc3c(c2)CCCC(=O)N3)c1 7.24%
O=C1NC[C@H](Cc2ccccc2)N(C[C@H]2CCCN2C[C@H](Cc2ccccc2)N2C[C@H](Cc3ccc(O)cc3)N(CC3CCCCCC3)C(=O)C2=O)C1=O -2.17%
Cc1cc2nc3c(=O)n(C)c(=O)n(C)c3nc2cc1N=CN(C)C 13.4%
O=C(c1cc(-c2ccc(Cl)s2)nc2ccccc12)N1CCCC1 12.2%
Cc1ccc(CN2CCN(C3CCN(C(=O)OC(C)(C)C)CC3)C(=O)C2=O)cc1 9.47%
CCOC(=O)c1c(NC(=O)COC(=O)c2ccc(NC(=O)CC#N)cc2)sc(C(=O)NC)c1C 19.5%
C[C@@H](C(=O)N[C@H](C(=O)O)c1ccccc1)n1nnc2ccccc2c1=O 13.6%
Cc1ccc2occ(CC(=O)Nc3ccc(S(N)(=O)=O)cc3)c2c1 -20%
COC(=O)c1ccc2nc(-c3ccc(C)cc3)c(Cc3ccc(OC)cc3C)n2c1 22.3%
C[C@]12CC[C@H](O)C[C@@H]1CC[C@@H]1[C@@H]2CC[C@@]2(C)[C@H]1CCC(=O)[C@]21CCCO1 -22.1%
CCCCC(=O)Nc1cccc(OCc2cc(=O)n3ccccc3n2)c1 0%
COC(=O)C1=CN(c2ccc(F)c(F)c2)C=C(C(=O)OC)C1c1ccc([N+](=O)[O-])cc1 4.3%
O=C(COC(=O)CNC(=O)c1ccccc1Cl)NC1CCCC1 -33.4%
COc1ccc(C)cc1NC(=O)C(=O)NCCc1csc(-c2ccc(C)cc2)n1 24.6%
CCOC(=O)C1CCN(C(=O)COC(=O)c2nc3nc(C)cc(C)n3n2)CC1 18.9%
